# Read counts are not given, so values of variants with three or more changes are uncertain.
# B1: LINE1-mini (parent)
# chain: GGCAGAGCUCAACACAGCGUGGCAAAGUGGCUGUGGCUAGACUGCC
# Variants of: B1
# Experiment: self-cleavage, relative activity (ratio to wild type); higher = more cleavage; in vitro, sequencing; the parent is a self-cleaving ribozyme
row,Variant,self-cleavage
1,G7A A25U G33C C46A,0.03
2,U9A C10A A14U G19A G21A G35U,0.02
3,A6U U28C A39G C42U,0.01
4,G1U G7C A25G,0.04
5,C13G C15U G17U G19U C45U,0.01
6,U9A G22C A24C U34G,0.07
7,G1C A11C G29U,0.01
8,A25G G29A A39C,0.21
9,C3G C15G A26G,0.08
10,G17C C18A G27A C45U,0.09
11,G1A A26U C31U,0.13
12,A6C A11U C15G U20G C23U,0.02
13,C3A G5A G22U,0.88
14,A6G G17C G19A U20C G33A,0.02
15,C8U A12C A16C G35A A39G,0
16,G5C C15U C18A G27U G33C,0.06
17,G1C C8U A12G G27A,0.04
18,C10G C15A G19A G30U C37A C46A,0
19,G2U U28A A39G,0
20,C10A C23A G29C C42U,0.01
21,C10G C13U A26G G40A G44A,0
22,C8A A11U C15G,0.02
23,A4G A16U G19A G27C C42G,0.04
24,G1C C3G C15A,0.03

row,Variant,self-cleavage
1,C8U A16U C46U,0.06
2,G1A C8G G21C,0.23
3,A12U A16G G35A A41U U43C,0.08
4,G7U C18G G30C,0.04
5,C3G C13G A25C A26G G27U C45A,0.14
6,G1A C8G G22U G35C G36U,0.49
7,C8A G33C G35C,0.23
8,G5U A16G G19U U28G,0.02
9,C3A G17A C18G A39G C45G,0.1
10,G7A G27C U32G,0.06
11,G1U C8G G40C,0.04
12,U20G G27A C37G G40U U43C,0.02
13,A12U G19U C23A C46U,0.16
14,G5C A11U G22U,0.04
15,A4C U9G C31A A39U U43G C45U,0.01
16,A25C G35U A41C C42A,0.02
17,G2A G7U A14G A16G A26C U34A U38C C45U,0.02
18,C13A A14U C23A A25C U32G G33U,0.08
19,A4C G7C G17A U43A,0.31
20,G7A G17C G40C,0.03
21,C8A G19U A26G U38G,0
22,G7U C8U C10G G22U,0.01
23,C8G U20G G36A,0.03
24,C18U U28C C46A,0.53

row,Variant,self-cleavage
1,U32C U38A G44A,0.01
2,G36U C42G C46A,0.17
3,G7U G19U G27A,0.03
4,G35U G40C A41C,0.04
5,G1C G33U G36C C45G,0.01
6,G7A C18A C42A,0.24
7,G2U U28A G35U,0.04
8,C10A U34A A41C U43A,0.02
9,G19C G21U C37U,0.02
10,G19U U32C G35A G36A,0.01
11,G1U A4C G7C G40A,0.11
12,G5U C10A G19A A39C,0.02
13,A12C A14C A25G C31U,0
14,G2U A6G C10G U38A,0
15,C10A G27A A41C,0.03
16,A4C A24U U43A,0.04
17,G1C G2C C3G G7C C15A U28C,0
18,A16C G21A C46U,0.06
19,G2C A6G A12G G27A G40U,0.03
20,G2U C13A U38G C42U,0.01
21,G2C G17U U34C G44C,0.09
22,G5A G7C C10U A11U A25U U28C,0.01
23,G1C G40U C42A,0.02
24,C10A C18A G40U,0.02

row,Variant,self-cleavage
1,C3A U20G C46U,0.15
2,C18G U20G A26C C42A,0.05
3,G7A C15U U20C G40A G44U,0.06
4,G35A A39C C46A,0.05
5,G5A G17U C18U G35U U43G,0
6,G1A G5U G7U A11C G17C,0.03
7,G2A G5U G33A U38C,0.02
8,C13G U28G C46A,0.05
9,G2C A4G A14G U34C,0.09
10,G19A A25G G33U C45U C46U,0.07
11,G2U C18U G29A C45A,1.21
12,A12C U32A G40U,0.01
13,G22A A24G G44A,0.2
14,U20A C23A A24C G29U G44U,0.21
15,U9A G19A G30A,2.03
16,G2U G22U G27U C31U A39C,0.01
17,A4C G7U G29U U34G,1.34
18,A4U C15G A16G C18G G21U A26U G27U G40U C42A,0
19,C8A C13U G40U,0.12
20,C18U A25U C45G,0.18
21,A12G C15U G33U,0.03
22,G5A U20G G27U G40C,0.36
23,G5C A11U U34G,0
24,U9A U20G G22U A25G G33C G40U U43A,0.03

row,Variant,self-cleavage
1,G7C C18A G29U G36U,0.13
2,G7C G21C C31U C37A U38G,0
3,A26C G27U C37U C45G,0.02
4,C10U A11U G19C A25G G35C,0
5,C13A C15A U20C A26U,0.01
6,A11U G22U A24C G33A G44A,0.02
7,A24C U34C G35U C46U,0.04
8,G21U U38A G44U,0.12
9,G21A G27U G30A G33C G44U,0.02
10,C13U C15U G22A A24G,0.07
11,G29U C31A C45A,0.03
12,A11G G33U C45U,0.01
13,C15G A16C G30C A39C C45U,0.02
14,A25C A26G C37A,0.04
15,A11G G19U C31G,0.04
16,C3A C23G A41U,0.1
17,U9G C13A A39U G40C,0.04
18,G2A C15G C18G A24C G27A,0.17
19,A16C G27U C37U,0.37
20,C8A C10A A26C U28A C42U,0.01
21,C10A G19U A24C G33U U38C,0.02
22,A6C C15G G35U G36A,0.02
23,A12U C15A C18A,0.03
24,A11C C15A A16C G21C,0

row,Variant,self-cleavage
1,G1A C15U G29U U34G,0.08
2,A11U A16G G35U C42A,0.03
3,U28G G29A C37A,0.03
4,G7U C8U G36U G40C,0.15
5,G2A G22U A24U,0.07
6,U28A G35C G36U,0
7,C3U U9G G27C,0.02
8,G27C C31A G33U,0.03
9,A16C A26U C37G,0.06
10,C3G G17U G35U,0.09
11,G33C G44U C45G,0.01
12,A16C G19U C46G,0.07
13,G22A C23U G27C U32A,0.19
14,G5U G7C G36U,0.04
15,C13U A14G C15A,0.11
16,G17A C23G G35C A41C,0.11
17,A4G C13A G19U,0.03
18,G2C C23G G30U G33A,0.09
19,C18A G44C C45U,0.01
20,G2A C13U G29U,1.19
21,A4G G7C U20C U34A C37U,0.04
22,C18U G19C C46G,0.2
23,G1A C3A C10A G19A U28G G35A,0.33
24,A6C A25U U32A,0.04

row,Variant,self-cleavage
1,G2A A14G U43A,0.4
2,C3G U32C G33U C46A,0.2
3,G5C G7A C8G C15U G30U G35U A39U,0.32
4,A4C G7A A24U,0.65
5,G5C A16C U34A,0.1
6,C3G C10A A26G C31G G33C,0.04
7,G22A G27C C31G A41U,0.04
8,C3A A26G G33C,0.13
9,C3U C8G C18G G22A,0.05
10,A16G G19A U20A G22C G30C,0.42
11,C3U C15G U34C C37G,0.06
12,G2U C23U A24C,0.03
13,G2A U9G U20C,0.18
14,G2A A16G C31A,0.13
15,C8A A14C G19C U43A,0.03
16,G19C G22C A24U A25U C37U,0.01
17,G5C A25C G27A C31G,0.02
18,U9C A12C G21A G22A,0.01
19,G1A G2A G19C C37U A39G C42A,0.03
20,C15A G17C U34A,0.06
21,A11U C18U A25G C37G,0
22,G7A G21A G44U,0.25
23,A4C A12C G21U U28A G33U,0.12

# Reference: the RNAGym collection of RNA variant scans (doi:10.7554/elife.90254)
